We go through 83 molecules from PubChem BioAssay AID1346428 (National Center for Advancing Translational Sciences (NCATS), 2018).

The structures appear in SMILES notation. Values joined by “and” are separate entries in the source; they are usually repeats but may differ in a detail not shown here. Equal entries are not always repeated. Out of some 48,000 compounds screened, about 1,200 (2.5%) were called active. Another 2% or so got no clear call; they are omitted.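 How the source made its calls: active means activation of at least 60% and not above a set upper limit (about 1 call in 100 departs from these limits); inconclusive means activation of 40% to 60%, or above that upper limit; inactive means activation under 40%.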 Some of the results follow.

The target in this assay is Probable G-protein coupled receptor 32 (Homo sapiens) (UniProt O75388). Nature of the assay: qHTS for Agonists of Human Resolvin D1 Receptor DRV1. Further: 0% is about no effect. Conditions: CHO-K1 GPR32 beta-arrestin PathHunter luminescence, 90 min; at 76.9 µM; hits give high values; zero percent set by DMSO-only wells. The essentials: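 Cells are plated overnight, treated with compounds in DMSO for 90 minutes at 37 °C, and developed with PathHunter detection reagent for 1 hour before luminescence is read; signal reflects beta-arrestin binding to GPR32 in engineered CHO-K1 cells.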
Sequence of UniProt O75388 (O75388 whole entry, looked up): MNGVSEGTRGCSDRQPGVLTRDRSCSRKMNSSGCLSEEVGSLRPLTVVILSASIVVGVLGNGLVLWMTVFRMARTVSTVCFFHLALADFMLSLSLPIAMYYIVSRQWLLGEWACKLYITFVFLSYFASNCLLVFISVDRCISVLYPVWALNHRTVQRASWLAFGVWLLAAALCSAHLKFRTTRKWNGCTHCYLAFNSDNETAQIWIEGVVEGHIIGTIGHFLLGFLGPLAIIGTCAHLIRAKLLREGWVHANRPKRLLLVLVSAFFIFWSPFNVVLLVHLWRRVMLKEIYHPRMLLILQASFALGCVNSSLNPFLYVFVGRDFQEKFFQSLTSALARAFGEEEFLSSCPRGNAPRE
Consider `CCN(CC)CCOC(=O)C(Cc1cccc2ccccc12)CC1CCCO1` (stereo not drawn), for which the activation is inactive: -1.46%.

On to `COc1ccc(N2CCN(C(=O)CSc3c4c(nc5ccc(Cl)cc35)CCCC4)CC2)cc1`, for which the activation was inactive: -28.3%.

Turning to `O=C(Nc1cccc(O)c1)c1cc2nc(-c3ccc(Br)cc3)cc(C(F)(F)F)n2n1`, the activation is inactive: -6.66%.

For `CC1CCc2nc(NC(=O)COc3ccc(C(C)(C)C)cc3)sc2C1` (stereo not drawn), the activation is inactive: 3.53%.

Take `CCOC(=O)c1ncn2c1CN(C)C(=O)c1cc(F)ccc1-2`: the activation is inactive: -3.77% and inactive: 5.41%.

For the molecule `O=NN(CCCl)C(=O)NCCCl`, the activation was inactive: -23.6% and inactive: 6.21%.

For the molecule `O=S(=O)(Nc1cccc(-c2ccc(N3CCCCC3)nn2)c1)c1cccs1`, the activation was inactive: 1.61%.

For `COc1ccc(OC)c(C2CC(=O)c3c([nH]c(C(=O)OCC4CCCCC4)c3C)C2)c1` (stereo not drawn), the activation is inactive: -9.39%.

With `Cc1cccc(CCn2c(=O)c3ccccc3n(Cc3cccc(F)c3)c2=O)c1`, the activation is inactive: -16.7%.

Consider `Cc1csc2nc(COC(=O)COc3ccccc3F)cc(=O)n12`, for which the activation is inactive: 2.73%.

For the molecule `CC(=O)c1cccc(NC(=O)CCS(=O)(=O)c2cc(Br)cc3c2N(C(=O)C2CC2)CC3)c1`, the activation is inactive: -7.35%.

For the molecule `CCCC(=O)N1CC(=O)Nc2ccc(Cl)cc2C1c1ccc(F)cc1` (stereo not drawn), the activation was inactive: -9.28%.

Consider `CCOc1ccc(S(=O)(=O)Nc2ccc3oc(C)c(C(=O)OCCOC)c3c2)cc1`, for which the activation was inactive: -15.5%.

`O=C(Cc1ccc(NC(=O)N2CCSc3ncccc32)cc1)NCc1ccccc1Cl`: the activation is inactive: 40.9%.

`CCS(=O)(=O)c1ncc(N(Cc2ccco2)Cc2sccc2C)c(C(=O)Nc2cc(C)ccc2C)n1`: the activation is inactive: -16.5%.

Take `COc1ccc(CCNC(=O)Cn2nnc(-c3ccc(C(F)(F)F)cc3)n2)cc1OC`: the activation is inactive: -11.7%.

Turning to `CCCn1c(=O)c2sccc2n2c(CCCC(=O)N3CCN(c4ccccc4)CC3)nnc12`, the activation was inactive: -8.91%.

In the case of `Cn1c(C(=O)NCc2ccc(F)cc2)cc2c(=O)n(C)c3ccccc3c21`, the activation is inactive: 5.96%.

In the case of `COc1ccc(C(=O)NCCc2sc(-c3cccc(F)c3)nc2C)cc1`, the activation was active: 67.2%.

For the molecule `CC[C@H](NC(=O)c1c(C)c(-c2ccccc2)nc2ccccc12)c1ccccc1`, the activation is inactive: -11.6%.

Take `C[C@@H](N)C1CCC(C(=O)Nc2ccncc2)CC1` (stereo partly drawn): the activation is inactive: -6.61%.

`NCC(O)(CS(=O)(=O)O)c1ccc(Cl)cc1` (stereo not drawn): the activation is inactive: -0.755%.

Regarding `Cc1nc2ccn(Cc3cccnc3)c(=O)c2cc1C(=O)Nc1ccc(OC(F)(F)F)cc1`, the activation is inactive: -7.47%.

For `Cc1ccccc1NS(=O)(=O)c1ccc2[nH]cc(C(=O)N3CCCC3)c(=O)c2c1`, the activation was inactive: -7.87%.

For `Cc1cc(Br)ccc1NC(=O)CCS(=O)(=O)c1cccc2nonc12`, the activation is inactive: 17.8%.

Turning to `COc1ccc(Cl)cc1NS(=O)(=O)c1cc(-c2cc(C)no2)ccc1C`, the activation is inactive: -18.3%.

On to `O=C(NCC(c1cccs1)S(=O)(=O)c1cccs1)c1ccccc1` (stereo not drawn), for which the activation is inactive: -6.6%.

On to `CC(NC(=O)Cn1ncc2c3ccccc3n(Cc3ccc(F)cc3)c2c1=O)c1ccccc1` (stereo not drawn), for which the activation is inactive: -6.02%.

Take `CCOC(=O)c1ccc(NC(=O)C2Cc3ccccc3CN2S(=O)(=O)c2ccc(Cl)cc2)cc1` (stereo not drawn): the activation is inactive: -16.9%.

In the case of `CCOC(=O)c1c(NC(=O)c2noc3c2CC(C(C)(C)C)CC3)sc2c1CCCC2` (stereo not drawn), the activation was inactive: -10.1%.

`Cc1ccc(C)c(N2CCN(C(=O)CN3C(=O)COc4ccc(S(=O)(=O)N5CCCCCC5)cc43)CC2)c1`: the activation is inactive: -8.07%.

`CC(=O)c1sc2c(c1C)c(=O)n(-c1ccc(Cl)cc1)c(=O)n2Cc1ccc(Cl)cc1`: the activation was inactive: -12.3%.

Consider `Cc1cc(C)c(Cn2c(C)c(CNCCCc3ccccc3)c(C(=O)O)c2C)c(C)c1`, for which the activation was inactive: 36.5%.

For the molecule `Cc1cccc(NC(=O)c2cnn(-c3ccccc3)c2-n2cccc2)c1C`, the activation is inactive: 5.28%.

On to `CC(=O)N1CCC(N(Cc2ccco2)C(=O)Nc2cccc(C)c2)CC1`, for which the activation was inactive: 0.741%.

Turning to `CCOC(=O)c1cc2c(=O)n3ccccc3nc2n(CC2CCCO2)c1=NC(=O)c1cccc(C(F)(F)F)c1` (stereo not drawn), the activation was inactive: -6.74%.

On to `COc1ccc(-c2cc(C(=O)Nc3c(C(=O)c4ccc(Cl)cc4)oc4ccccc34)no2)cc1`, for which the activation is inactive: -6.54%.

In the case of `CCC1CN(C(=O)N2CCC(C(=O)NCc3ccc(C)o3)CC2)c2cc(C)ccc2O1` (stereo not drawn), the activation is inactive: -12.1%.

As to `CCOC(=O)N1CCN(S(=O)(=O)N2CCCC(C(=O)NCc3cccc(OC)c3)C2)CC1` (stereo not drawn), the activation is inactive: -1.32%.

As for `Cc1nc2c(C(=O)NCc3ccccc3Cl)cnn2c(C)c1Cc1c(F)cccc1Cl`, the activation was inactive: -12.3%.

Consider `O=C(NC1CC(=O)N(c2ccc(F)cc2)C1)c1cc2ccccc2o1` (stereo not drawn), for which the activation is inactive: -11.5%.

Regarding `CC(=O)N1CCCc2cc(S(=O)(=O)N3CCC(C(=O)NCCC(C)C)CC3)ccc21`, the activation is inactive: 10.3%.

On to `CN1CCN(C(c2ccccc2)c2sc3nc(-c4ccco4)nn3c2O)CC1` (stereo not drawn), for which the activation is inactive: -6.5%.

As for `COc1ccccc1NC(=O)n1ncc2c(C)cccc21`, the activation was inactive: 2.52%.

As to `CCOC(=O)c1nnc2c(-c3ccc(OC)cc3)c(C)nn2c1N`, the activation is inactive: -39%.

As to `Cc1ccc(C)c(NC(=O)CSc2cn(CC(=O)N3CCCC3)c3ccccc23)c1`, the activation is inactive: -16.9%.

`CCCN1C(=O)C(NC(=O)c2ccccc2OC)(C(F)(F)F)C(C(=O)OC)=C1C` (stereo not drawn): the activation is inactive: 9.31%.

Take `Cc1ccc2nc(NC(=O)c3cc(=O)c4cc(C)c(C)cc4o3)sc2c1`: the activation is inactive: 0.373%.

Regarding `CCOc1ccccc1C1C(C(=O)Nc2ccccc2OC)=C(C)Nc2nc3ccccc3n21` (stereo not drawn), the activation was inactive: -0.882%.

As to `CCOc1ccc(NC(=O)Cc2csc(COc3cccc(C)c3)n2)cc1`, the activation was inactive: -6.82%.

In the case of `CO/S(=N\S(=O)(=O)c1ccc(Cl)cc1)c1ccc([N+](=O)[O-])cc1` (stereo not drawn), the activation is inactive: 5.83%.

Regarding `CSc1ccc(CNC(=O)CCn2ccc3cc(S(=O)(=O)N4CCCC4)ccc32)cc1`, the activation was inactive: -5.38%.

Take `COc1ccccc1CNC(=O)c1ccc(C)c(-n2cnc3cccnc32)c1`: the activation is inactive: 1.45%.

As to `Cc1cc(C)c(NC(=O)CN(CC(=O)O)CC(=O)O)c(C)c1Br`, the activation is inactive: -59.6%.

As for `O=C(NCCc1csc(-c2cccnc2)n1)c1cccc(C(F)(F)F)c1`, the activation is active: 68.4%.

For the molecule `CCOc1ccc(NC(=O)Cn2c(C)ccc(C#N)c2=O)cc1`, the activation was inactive: -8.32%.

Regarding `CCc1nnc2c3ccccc3nc(N3CCN(c4ccc(C)cc4C)CC3)n12`, the activation was inactive: 12.4%.

For `CCOC(=O)c1ccccc1NC(=O)CN(c1ccccc1OC)S(=O)(=O)c1ccc(C)cc1`, the activation was inactive: -5.91%.

On to `COc1ccc(CN2C(=O)C(NC(=O)c3ccc(C)cc3)(C(F)(F)F)N=C2c2ccccc2)cc1` (stereo not drawn), for which the activation was inactive: -16%.

Take `Cc1cc(Br)ccc1NC(=O)c1cc2c(s1)-c1ccccc1SC2`: the activation is inactive: -9.57%.

With `O=C(CCCn1c(=O)c2cccn2c2cccnc21)NCCc1ccc(Cl)cc1`, the activation is inactive: -10%.

With `COc1ccc(-c2nn(C)c3sc(C(=O)N4CCN(c5cccc(C)c5C)CC4)cc23)cc1OC`, the activation was inactive: -10.7%.

Take `COc1ccc(NS(=O)(=O)c2nnc(NC(=O)c3ccccc3F)s2)cc1`: the activation is inactive: 13.5%.

For `CCOC(=O)N1CCc2c(sc3c2c(=O)n(-c2ccc(Cl)cc2)c(=O)n3CC(=O)c2ccc(F)cc2)C1`, the activation is inactive: -13%.

On to `COc1ccccc1NC(=O)CSc1nc2c(oc3ccccc32)c(=O)n1-c1ccc(C)cc1`, for which the activation is inactive: 7.73%.

As for `COc1cc(/C=C/c2nc(C#N)c(NC3CCCCC3)o2)cc(OC)c1OC`, the activation was inactive: -22.3%.

On to `Cc1ccc(CNc2nc3c(S(=O)(=O)c4ccccc4)nnn3c3ccsc23)cc1`, for which the activation is inactive: 1.96%.

`O=C(/C=C/c1cn(CC(O)CN2CCCCCC2)c2ccccc12)c1ccccc1` (stereo not drawn): the activation was inactive: 3.99%.

Consider `O=C(Nc1ccccc1C(=O)OCc1cc(=O)n2nc(C3CC3)sc2n1)c1cccc(Cl)c1`, for which the activation is inactive: -13%.

With `COc1ccc(C2c3c(-c4ccccc4O)n[nH]c3C(=O)N2Cc2ccco2)cc1` (stereo not drawn), the activation was inactive: -6.99%.

For `CCOC(=O)C1=C(CN2CCN(c3ccccc3)CC2)NC(=O)NC1c1ccc(C)cc1` (stereo not drawn), the activation was inactive: 4.62%.

Turning to `COc1cccc(C(=O)NC(=O)Nc2ccc(-c3cc(C(F)(F)F)nn3-c3ccccc3)cc2)c1`, the activation was inactive: -5.54%.

For `Cc1sc2ncn(CC(=O)Nc3cccc(C(F)(F)F)c3)c(=O)c2c1S(=O)(=O)N1CCC(C)CC1`, the activation is inactive: -5.49%.

Regarding `Cc1ccc(Cl)cc1NC(=O)Cn1c(=O)c(CNc2ccccc2)cc2cc3c(cc21)OCCO3`, the activation is inactive: -10.4%.

On to `CCCCn1c(-c2ccc(S(=O)(=O)N3CCOCC3)cc2)csc1=Nc1ccccc1`, for which the activation is inactive: -8.33%.

As for `COc1ccc(-c2c(C)nn3c4c(cnc23)C(=O)CC(c2ccc(C)cc2)C4)cc1` (stereo not drawn), the activation was inactive: -2.52%.

Take `CCN(c1cccc(C)c1)S(=O)(=O)c1nnc(NC(=O)c2cccs2)s1`: the activation was active: 61.8%.

`Cc1c(C(=O)Nc2ccccc2Br)oc2ccc(S(=O)(=O)N3CCCCC3)cc12`: the activation was inactive: 0.0871%.

As to `Cc1cccc(Cn2c(CN3CCC(C(=O)NCCc4ccccc4)CC3)cc3ccccc32)c1`, the activation is inactive: -33.9%.

Take `COc1ccc(C(=O)Nc2cc(C(F)(F)F)ccc2N2CCN(c3ccccc3)CC2)cc1OC`: the activation is inactive: -4.09%.

As for `CCC(=O)Nc1nnc(S(=O)(=O)N(C)Cc2ccccc2)s1`, the activation is inactive: -8.67%.

Regarding `CCOc1ccccc1NC(=O)c1cccc2c1C(=O)N(C1CCCCC1)C2`, the activation was inactive: -5.44%.

For `COc1cccc(NC(=O)Cn2c(=O)n(-c3ccc(CC(=O)NCC4CCCO4)cc3)c(=O)c3ccccc32)c1` (stereo not drawn), the activation is inactive: 0.35%.
